Results on 45 compounds are retold here after article PMC4336329 (PLoS ONE, 2015).

Structures are written as SMILES. Among all 310,000 compounds or so, about 14,000 (4.5%) showed an effect of 50% or more. Effects have a minus sign here. Some of the results follow.
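Note: peak tail current of the secondary pulse compared with the same well before compound.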

human ether-à-go-go-related gene (hERG) potassium channel, sequence (Q12809 whole entry, looked up): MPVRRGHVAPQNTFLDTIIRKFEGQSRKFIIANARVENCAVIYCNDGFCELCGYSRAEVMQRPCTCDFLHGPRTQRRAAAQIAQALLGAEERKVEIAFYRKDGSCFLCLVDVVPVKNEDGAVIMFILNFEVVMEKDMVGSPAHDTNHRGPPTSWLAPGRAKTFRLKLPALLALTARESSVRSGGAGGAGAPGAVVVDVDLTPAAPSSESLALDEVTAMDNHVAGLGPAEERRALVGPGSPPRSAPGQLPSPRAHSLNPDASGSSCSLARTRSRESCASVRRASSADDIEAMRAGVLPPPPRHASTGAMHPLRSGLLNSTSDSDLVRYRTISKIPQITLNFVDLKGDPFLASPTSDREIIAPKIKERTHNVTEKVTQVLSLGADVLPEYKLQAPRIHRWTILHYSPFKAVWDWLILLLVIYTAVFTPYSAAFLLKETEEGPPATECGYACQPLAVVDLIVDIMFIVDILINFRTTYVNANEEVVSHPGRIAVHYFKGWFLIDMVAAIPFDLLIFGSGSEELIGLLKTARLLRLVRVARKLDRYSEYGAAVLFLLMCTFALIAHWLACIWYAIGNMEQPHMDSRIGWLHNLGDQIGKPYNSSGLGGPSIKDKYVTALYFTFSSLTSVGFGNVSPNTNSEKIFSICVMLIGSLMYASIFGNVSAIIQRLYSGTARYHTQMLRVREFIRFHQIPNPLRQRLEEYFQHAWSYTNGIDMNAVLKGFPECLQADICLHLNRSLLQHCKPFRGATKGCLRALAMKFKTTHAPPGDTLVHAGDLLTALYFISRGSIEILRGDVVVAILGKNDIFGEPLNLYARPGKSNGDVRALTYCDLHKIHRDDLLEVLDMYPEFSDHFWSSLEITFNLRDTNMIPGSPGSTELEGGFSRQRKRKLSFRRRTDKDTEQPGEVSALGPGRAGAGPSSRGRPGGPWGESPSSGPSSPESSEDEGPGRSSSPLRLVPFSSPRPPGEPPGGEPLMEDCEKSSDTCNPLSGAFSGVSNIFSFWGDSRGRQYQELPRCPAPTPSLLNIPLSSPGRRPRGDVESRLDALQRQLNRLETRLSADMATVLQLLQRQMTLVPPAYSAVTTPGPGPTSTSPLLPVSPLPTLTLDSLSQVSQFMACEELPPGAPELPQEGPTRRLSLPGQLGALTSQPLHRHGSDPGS

The test addresses human ether-à-go-go-related gene (hERG) potassium channel (human, UniProt Q12809). Kind of test: primary screen, population patch clamp on CHO cells stably expressing hERG.
Regarding `Cn1c(-c2ccc(N)cc2)nc2ccccc21`, the “hERG current change (%, negative = inhibition) at 10uM” value was -3.42%. For `CC(C)C1=NN(C(=O)c2ccccc2)C(O)(C(C)(C)C)C1` (stereo not drawn) the value was 4.49%. For `COc1cccc(C(=O)Oc2ccc3c(C)cc(=O)oc3c2C(C)=O)c1` the value was 0.342%; for `CCOC(=O)C1CCCn2c1nc1sc3c(c1c2=O)CCCC3` (stereo not drawn), -21.1%.

Regarding `O=C(Cc1ccccc1)NCC1COc2ccccc2O1` (stereo not drawn), the “hERG current change (%, negative = inhibition) at 10uM” value came to 2.3%.

For `Cc1cc(NC(=O)COC(=O)c2oc3c(ccc4ccccc43)c2C)no1`, the “hERG current change (%, negative = inhibition) at 10uM” value stood at 20.6%. On to `Clc1ccc(-c2nnc(-c3ccccc3)nc2N2CCSCC2)cc1`, for which the “hERG current change (%, negative = inhibition) at 10uM” value is -2.38%. In the case of `CC(C)Nc1nc(Cl)nc(NC2CCCCC2)n1`, the “hERG current change (%, negative = inhibition) at 10uM” value was 16.6%. For `CNC(=O)c1cc(S(=O)(=O)Nc2ccc(C)cc2C)ccc1C` the value was 10.6%; for `CCOc1ccc(C(=O)COC(=O)c2c(-c3ccccc3)noc2C)cc1`, -0.244%. In the case of `COC(=O)C(O)(c1cn(C)c2ccccc12)C(F)(F)F` (stereo not drawn), the “hERG current change (%, negative = inhibition) at 10uM” value came to 15.1%.

On to `COc1cccc(/C=N/NC(=O)CC2C(=O)NN=C2C)c1OC` (stereo not drawn), for which the “hERG current change (%, negative = inhibition) at 10uM” value came out at 2.5%. As to `c1ccc2[nH]c(CCCCc3nc4ccccc4[nH]3)nc2c1`, the “hERG current change (%, negative = inhibition) at 10uM” value is on record as -36.5%. For `Cc1ccccc1C(=O)NNS(=O)(=O)c1cccc([N+](=O)[O-])c1` the value was 22.7%; for `COc1ccc(-c2cc(=O)c3cc(F)ccc3[nH]2)cc1`, 11.4%; for `CC(C)c1ccc(NC(=S)N(C)CCc2ccccn2)cc1`, -8.91%. For `Cc1occc1C(=O)N1CCC2(CC1)OCCO2` the value was 1.9%; for `COn1c(=S)[nH]c2ccccc2c1=O`, 6.51%; for `CCNC(=O)CC1C(=O)N(c2ccc(OC)cc2)C(=O)N1Cc1ccc(OC)cc1` (stereo not drawn), -9.1%. For `Cc1nc(N2CCN(C(=O)c3ccco3)CC2)c2c3c(sc2n1)CCCC3` the value was -64.1%. Consider `CCN(CC)C(=O)C1=C(C)NC(=O)NC1c1c(F)cccc1Cl` (stereo not drawn), for which the “hERG current change (%, negative = inhibition) at 10uM” value was -2.87%.

Consider `Cc1onc(-c2ccccc2)c1NC(=O)N(CCC(=O)O)Cc1ccccc1`, for which the “hERG current change (%, negative = inhibition) at 10uM” value stood at 2.16%. For `CCOc1ccccc1NCc1cc(=O)oc2cc(C)ccc12` the value was 19.4%; for `COCCn1nnnc1C(c1cc2ccc(C)cc2[nH]c1=O)N(Cc1ccco1)Cc1cccs1` (stereo not drawn), -26.8%; for `CCOc1ccc(-c2csc(/C(C#N)=C\c3ccc(O)c([N+](=O)[O-])c3)n2)cc1`, 17.5%. For `O=C(NC(Cc1c[nH]c2ccccc12)C(=O)NCCCN1CCOCC1)c1cccs1` (stereo not drawn) the value was -21.1%; for `CC1(C)SCC(C(=O)O)NC1=O` (stereo not drawn), 23.9%; for `CC1CCCCN1S(=O)(=O)c1ccc2c(c1)CCN2C(=O)C1CC1` (stereo not drawn), 5.91%. In the case of `COC(=O)N/N=C/c1ccc(/C=N/NC(=O)OC)cc1`, the “hERG current change (%, negative = inhibition) at 10uM” value turned out to be 15.5%. `COc1ccc(C(=O)c2sc(Nc3ccccc3F)nc2N)cc1`: the “hERG current change (%, negative = inhibition) at 10uM” value is 3.23%. On to `Cc1cccc(-n2ncc3c(NC4CCCCC4)ncnc32)c1`, for which the “hERG current change (%, negative = inhibition) at 10uM” value is -5.1%. `Cc1ccc(C2NC(c3ccc(C)cc3)C(C)C(=NO)C2C)cc1` (stereo not drawn): the “hERG current change (%, negative = inhibition) at 10uM” value is -1.33%. In the case of `CC(C)(C)C(=O)N1CCC(O)(CS(=O)(=O)Cc2ccc(Cl)cc2)CC1`, the “hERG current change (%, negative = inhibition) at 10uM” value was -3.46%. In the case of `CCOC(=O)c1c(NC(=O)/C=C/c2ccc3c(c2)OCO3)sc(C)c1CC`, the “hERG current change (%, negative = inhibition) at 10uM” value was found to be 18.6%. Turning to `NNC(=O)c1sccc1OCc1ccc(Cl)cc1Cl`, the “hERG current change (%, negative = inhibition) at 10uM” value is recorded as -18.5%. Turning to `CSc1ccc(CNc2cccc3ccccc23)cc1`, the “hERG current change (%, negative = inhibition) at 10uM” value was determined as 2.23%.

For `COc1ccc(C)cc1S(=O)(=O)n1ccnc1C`, the “hERG current change (%, negative = inhibition) at 10uM” value is reported as 13.1%. For `CC(=O)n1nc(-c2ccccc2)nc1NCc1cccs1` the value was 8.35%; for `Cc1nn(CC(=O)Nc2ccc(Cl)c(S(=O)(=O)N(C)C)c2)c(C)c1[N+](=O)[O-]`, -61.3%. On to `COc1ccc(C(=O)Nc2c(C(C)(C)C)nn(C)c2C(C)(C)C)cc1`, for which the “hERG current change (%, negative = inhibition) at 10uM” value is 7.87%.

As to `Cc1ccc(OCC(=O)NNC(=O)Cc2ccc(S(=O)(=O)N3CCOCC3)s2)cc1`, the “hERG current change (%, negative = inhibition) at 10uM” value came to 2.78%. `CCOc1ccccc1/C=c1\sc2nc(-c3ccco3)nn2c1=O`: the “hERG current change (%, negative = inhibition) at 10uM” value is on record as 15.9%.

Consider `COc1ccc(C2(CNC(=O)c3ccc(OCC(C)C)cc3)CCOCC2)cc1`, for which the “hERG current change (%, negative = inhibition) at 10uM” value is listed as -18.6%.

On to `Cc1ccc(N(CC(=O)NCc2ccc(F)cc2)C(=O)c2ccco2)cc1C`, for which the “hERG current change (%, negative = inhibition) at 10uM” value is on record as -10.8%.

In the case of `CN(C)CCNC(=O)CN1C(=O)CSc2ccc(S(=O)(=O)N3CCCCC3)cc21`, the “hERG current change (%, negative = inhibition) at 10uM” value came to 12.5%.
